In PubChem BioAssay AID588855 (National Center for Advancing Translational Sciences (NCATS), 2011):
About 5,000 (1.2%) of roughly 410,000 compounds were called active. This list was built around the results that the source calls inconclusive (neither active nor inactive); the mix of calls is not that of the screen. Calls follow the shape of the dose curve; as a rule, active = well fitted inhibition curve with a large enough effect; inconclusive = small, poorly fitted or top-dose-only effect; inactive = no such curve, though single readings can be large or run the other way. Potencies beside an inconclusive call are fits to weak or partial responses and may not hold up.

test: qHTS for Inhibitors of TGF-b; conditions: HepG2 CAGA-GFP TGF-b/SMAD3 reporter, GFP fluorescence, 18 h, TGF-beta stimulated, 500 pg/mL final; series mostly up to 46.1 µM; also: nearly all actives have a fitted effect of over 65% in size
How it was run: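 First, reporter cells (HEPG2 CAGA-GFP) rested 2 h at 37 degrees C. Next, compounds were pinned in and TGF-beta added to 500 pg/mL final. After 18 h, GFP was imaged per cell and summed per well.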
Potency is read from the fitted curve at half-maximal effect; tags tell the direction and shape of the fitted curve.

| SMILES | Potency |
| --- | --- |
| CC(C)(O)C#Cc1ccc(C(=O)N2CCN(c3ccc(Cl)cc3)CC2)cc1 | inconclusive: 35.5 µM [inhibitor, single point] |
| Cc1ccc([N+](=O)[O-])cc1S(=O)(=O)Nc1ccc(-c2ccc(N3CCCC3)nn2)cc1 | inconclusive: 3.55 µM [inhibitor, single point] |
| COc1ccc(OCC(O)Cn2c(NCCO)nc3c2c(=O)n(C)c(=O)n3C)cc1 (stereo not drawn) | inactive |
| CCOC(=O)CSc1nc2c(sc3ccccc32)c(=O)n1CCO | inconclusive: 35.5 µM [inhibitor, single point] |
| C#CCOCCOCCOCCNc1nc(N2CCN(C(=O)CCCCCCCCCCNC(=O)[C@@H](CCSC)n3cc(CCO)nn3)CC2)nc(N2CCN(C(=O)CCCCCCCCCCNC(=O)[C@H](CO)n3cc(CCCCCN)nn3)CC2)n1 | inconclusive: 10 µM [inhibitor, partial curve, poor fit] |
| Cc1cc(C)nc(Nc2nc(C(N)Cc3ccc(C(F)(F)F)cc3)cs2)n1 (stereo not drawn) | inconclusive: 31.6 µM [inhibitor, single point] |
| Cc1cc(C(=O)COC(=O)c2ccc([N+](=O)[O-])o2)c(C)n1CC1CCCO1 (stereo not drawn) | inconclusive: 35.5 µM [inhibitor, single point] |
| C#CCN1C=CC(=O)[C@@H](OC(=O)Nc2ccc(Cl)cc2)[C@H]1c1ccccc1Br | inconclusive: 11.2 µM [inhibitor, single point] |
| CC(C)(C)C(=O)CSc1ccc(S(=O)(=O)N2CCN(Cc3ccccc3)CC2)cn1 | inconclusive: 15.8 µM [inhibitor, single point] |
| COc1ccc(-n2cc(C(=O)NCCc3cc(OC)ccc3OC)c3ccccc3c2=O)cc1 | inconclusive: 35.5 µM [inhibitor, single point] |
| Cc1ccc(-c2ccc(=O)n(Cc3c(F)cccc3Cl)n2)cc1 | inconclusive: 22.4 µM [inhibitor, single point] |
| CC1(C(=O)NCc2ccccc2Br)CCN1C(=O)Cc1ccc(-c2ccccc2)cc1 (stereo not drawn) | inconclusive: 28.2 µM [inhibitor, single point] |
| CC(C)CC(=O)Nc1nnc(S(=O)(=O)N(C)Cc2ccc(Cl)cc2)s1 | inactive |
| Cc1ccccc1NC(=O)CSC1=NCCN1 | inconclusive: 2.82 µM [inhibitor, partial curve, poor fit] |
| S=C(NCCCc1cnc[nH]1)NCCCN(Cc1ccc(Cl)c(Cl)c1)c1ccc(Br)cn1 | inconclusive: 11.2 µM [inhibitor, partial curve, poor fit] |
| COc1ccc2c(c1)c(=O)c(S(=O)(=O)c1ccccc1)cn2CC(=O)Nc1ccc(C)c(Cl)c1 | inconclusive: 14.1 µM [inhibitor, partial curve, poor fit] |
| CCOC(=O)C1(CCOc2ccccc2)CCN(Cc2cc(OC)cc(OC)c2)CC1 | inconclusive: 35.5 µM [inhibitor, single point] |
| C[C@H](CO)N1C[C@H](C)[C@@H](CN(C)S(=O)(=O)c2cccs2)Oc2ccc(NC(=O)c3ccncc3)cc2C1=O | inactive |
| CC(=O)c1ccc(NC(=O)c2cc(C)nc3c2c(C)nn3-c2ccc(C)cc2)cc1 | inactive |
| O=c1cc(-c2ccccc2)cc(-c2ccccc2)n1O | inconclusive: 14.1 µM [inhibitor, partial curve, poor fit] |
| C(=N\Nc1nc2ccccc2s1)/c1cccs1 | inconclusive: 17.8 µM [inhibitor, single point] |

| SMILES | Potency |
| --- | --- |
| CN1CCN(c2ccc(C(CC(N)=O)NC(=O)Cc3ccc(Br)cc3)cc2[N+](=O)[O-])CC1 (stereo not drawn) | inactive |
| CC1CCCC(NC(=O)C2COc3ccccc3O2)C1C (stereo not drawn) | inconclusive: 14.1 µM [inhibitor, single point] |
| Cc1nnc(SCCn2c(N3CC(C)CC(C)C3)nc3c2c(=O)n(C)c(=O)n3C)s1 (stereo not drawn) | inactive |
| O=C1c2ccccc2NC(c2ccccc2Br)N1CCCN1CCOCC1 (stereo not drawn) | inactive |
| CC(=O)c1ccc(NC(=O)CSc2nc(N)c3cc4c(nc3n2)CCCC4)cc1 | inconclusive: 35.5 µM [inhibitor, single point] |
| COc1cc(OC)cc(C(=O)NCC(=O)OCC(=O)c2cc(C)n(Cc3ccco3)c2C)c1 | inconclusive: 6.31 µM [inhibitor, partial curve, poor fit] |
| CC(=O)Nc1sc2c(c1C(N)=O)CCC2 | inconclusive: 17.8 µM [inhibitor, partial curve, poor fit] |
| CCOc1ccc(C(=O)Nc2ccc(-c3cc4ccccc4oc3=O)c(C)c2)cc1[N+](=O)[O-] | inconclusive: 0.891 µM [inhibitor, full curve, poor fit] |
| CCOc1ccc(S(=O)(=O)N2c3ccccc3CC2C)cc1 (stereo not drawn) | inconclusive: 15.8 µM [inhibitor, single point] |
| CCN(CC)c1ccc(C(=O)NC(=S)N2CCN(Cc3ccc4c(c3)OCO4)CC2)cc1 | inactive |
| Cc1ccc(-c2nnc(SCC(=O)Nc3ccccc3F)o2)cc1 | inactive |
| COc1ccccc1NC(=O)c1c(NCc2ccc(C)o2)sc2c1CCCCC2 | inconclusive: 35.5 µM [inhibitor, single point] |
| CCOC(=O)Cc1csc(NC(=S)NC(=O)CC(C)C)n1 | inactive |
| Cn1nnnc1Sc1ncnc2scc(-c3ccc(C(F)(F)F)cc3)c12 | inconclusive: 11.2 µM [inhibitor, partial curve, poor fit] |
| C=CC[C@H](CC(=O)N(CCO)Cc1ccccc1)C(=O)NC[C@@H](OC(=O)[C@@H](CC=C)Cc1ccc(F)cc1)c1ccccc1 | inconclusive: 15.8 µM [inhibitor, single point] |
| O=C(O)C1C2CC(C(Br)C2Br)C1C(=O)O (stereo not drawn) | inactive |
| O=C(COc1ccc(F)cc1Cl)Nc1cccc(S(=O)(=O)N2CCCC2)c1 | inconclusive: 12.6 µM [inhibitor, single point] |
| CN(c1ccccc1)S(=O)(=O)c1cccc(NC(=O)CCN2C(=O)C3CCCCC3C2=O)c1 (stereo not drawn) | inconclusive: 22.4 µM [inhibitor, single point] |
| CCCCc1c(C)nc2ccc(C)cc2c1SCCC(=O)O | inactive |
| NC(=O)COc1ccc(/C=C2\C(=O)ON=C2c2ccccc2)cc1 | inconclusive: 35.5 µM [inhibitor, single point] |
| CCC(C)(C)C1CCC2(CC1)NC(=O)N(CC(=O)NC(C)CCc1ccccc1)C2=O (stereo not drawn) | inactive |

| SMILES | Potency |
| --- | --- |
| Nc1ccc(-c2ncc(-c3ccccc3)o2)cc1 | inconclusive: 35.5 µM [inhibitor, single point] |
| CCN(CC)CCn1c(NC(=O)c2ccccc2O)nc2ccccc21 | inactive |
| CCOC(=O)c1cc(C)n(CC2CCC(C(=O)Nc3ccccc3OC)CC2)c1C (stereo not drawn) | active: 11.2 µM |
| C=CCc1c(C)nc(-c2ccccc2)nc1Nc1ccc(O)cc1 | inconclusive: 12.6 µM [inhibitor, partial curve, poor fit] |
| CCc1ccc(N(CC)C(=O)Cn2nc(Cc3cccnc3)c3ccccc3c2=O)cc1 | inconclusive: 35.5 µM [inhibitor, single point] |
| O=C1c2ccccc2C(=O)N1CN(C(=O)COc1ccc(Cl)cc1Cl)c1cccc(F)c1 | inconclusive: 0.112 µM [inhibitor, full curve, poor fit] |
| O=C(NNC(=O)c1ccc(-c2ccccc2)cc1)Nc1ccc(F)cc1F | inactive |
| O=[N+]([O-])c1ccc(CS(=O)c2ccccc2)cc1 (stereo not drawn) | inconclusive: 3.55 µM [inhibitor, single point] |
| Cn1c(=O)n(C)c2cc([N+](=O)[O-])c(N3CCN(C(=O)c4cccc(Cl)c4)CC3)cc21 | inconclusive: 14.1 µM [inhibitor, single point] |
| Cc1csc(NC(=O)CCSCCc2ccccn2)n1 | inactive |
| CCN(Cc1cccc(OC)c1)CC1CCCN(CCc2cccc(OC)c2)C1 (stereo not drawn) | inconclusive: 35.5 µM [inhibitor, single point] |
| C[C@@H]1CN([C@H](C)CO)C(=O)c2c(c3ccccc3n2C)-c2ccccc2CO[C@H]1CN(C)Cc1ccc(C(F)(F)F)cc1 | inconclusive: 35.5 µM [inhibitor, single point] |
| CC1=C(C(=O)OCC2CCCCC2)C(c2ccc(Cl)cc2)CC(=O)N1 (stereo not drawn) | inconclusive: 15.8 µM [inhibitor, single point] |
| O=C1N(Cc2ccccc2Cl)c2ccccc2C1(O)c1c[nH]c2ccccc12 (stereo not drawn) | inconclusive: 25.1 µM [inhibitor, single point] |
| C=CCn1c(C)nnc1SCC(=O)Nc1ccccc1C(=O)NC1CC1 | inactive |
| NC(=O)c1ccc(NC(=O)COC(=O)c2c3c(nc4ccccc24)/C(=C\c2ccc4c(c2)OCO4)CCC3)cc1 | inconclusive: 28.2 µM [inhibitor, single point] |
| O=C(COC(=O)c1ccccc1NC(=O)c1ccco1)Nc1ccc2c(c1)OCO2 | inconclusive: 22.4 µM [inhibitor, partial curve, poor fit] |
| COc1ccc(CNC(=O)Cn2ccc3cc(S(=O)(=O)N4CCCCC4)ccc32)cc1OC | inconclusive: 0.562 µM [inhibitor, full curve, poor fit] |
| S=C(NCc1ccccc1)NCc1ccccc1Cl | inconclusive: 28.2 µM [inhibitor, single point] |
| CC(C)(C)OC(=O)NCCC(=O)N/N=C/c1cccc2nccnc12 | inconclusive: 35.5 µM [inhibitor, single point] |
| O=C(CSc1nc2ccccc2s1)NC1CCS(=O)(=O)C1 (stereo not drawn) | inconclusive: 35.5 µM [inhibitor, single point] |
